From PubChem BioAssay AID360 (National Center for Advancing Translational Sciences (NCATS), 2006) come the findings set out here.

The whole screen tested about 48,000 compounds, of which about 550 (1.1%) were called active. Roughly 4% stayed inconclusive and do not appear here. No stated cut-off is given here; in the data, active means potency below about 15 µM; inconclusive means mostly about 16 µM to 33 µM; inactive means weaker than that. This is one part of the list.
Potency means the concentration at half of the fitted maximal effect.

Sequence of UniProt P04062 (P04062 whole entry, looked up): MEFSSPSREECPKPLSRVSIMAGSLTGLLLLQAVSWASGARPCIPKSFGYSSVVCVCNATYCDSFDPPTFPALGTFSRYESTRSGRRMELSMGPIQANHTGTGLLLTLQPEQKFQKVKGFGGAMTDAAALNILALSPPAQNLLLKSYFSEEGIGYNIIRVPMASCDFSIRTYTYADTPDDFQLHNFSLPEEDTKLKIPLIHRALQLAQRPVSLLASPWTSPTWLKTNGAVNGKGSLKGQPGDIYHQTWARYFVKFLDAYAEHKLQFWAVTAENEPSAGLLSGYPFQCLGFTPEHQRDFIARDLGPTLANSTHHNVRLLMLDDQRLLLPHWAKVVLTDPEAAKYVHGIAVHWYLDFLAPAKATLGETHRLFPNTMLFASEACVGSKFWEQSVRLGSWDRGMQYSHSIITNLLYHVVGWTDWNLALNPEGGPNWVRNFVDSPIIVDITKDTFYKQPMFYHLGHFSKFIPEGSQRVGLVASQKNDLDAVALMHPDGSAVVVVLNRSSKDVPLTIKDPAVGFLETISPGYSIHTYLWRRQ

The test addresses Lysosomal acid glucosylceramidase (Homo sapiens) (UniProt P04062). Put plainly: Glucocerebrosidase.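 Further: the screen sought inhibitors.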 Particulars: purified enzyme, resorufin glucoside fluorescence (screen aimed at inhibitors), 20 min; series mostly up to 77 µM. An excerpt:
NCGC Assay Overview: Beta-glucocerebrosidase catalyzes the hydrolysis of beta-glucocerebroside to glucose and ceramide. The inherited deficiency of beta-glucocerebrosidase results in Gaucher disease, which is characterized by a wide variety of symptoms including hepatosplenomegaly, anemia, thrombocytopenia, bony lesions and bone marrow infiltration with characteristic storage cells, known as Gaucher cells. There are also forms of the disorder affecting the central nervous system. Patients with the same genotypes can manifest with diverse clinical presentations and it is believed that improper folding and trafficking of beta-glucocerbrosidase may contribute to the phenotypes observed. Low molecular weight molecules, acting as chaperones, may potentially restore trafficking of misfolded beta-glucocerebrosidase from the endoplasmic reticulum to the lysosomes, thereby enhancing functional lysosomal beta-glucocerebrosidase activity. Using normal beta-glucocerebrosidase, an assay was developed to screen for small molecule inhibitors that could potentially act as molecular chaperones on the mutant forms [developed with NIH investigator Dr. Ellen Sidransky's laboratory]. Two pro-fluorescent substrates were chosen for two screens against a small molecule library. One beta-glucocerebrosidase assay used Resorufin beta-D-Glucopyranoside (Marker Gene Technology Inc.), generating a red fluorescent product. The second assay used Fluorescein di-beta-D-Glucopyranoside, generating a blue fluorescent product. […] The IC50 values of Conduritol B Epoxide, a known glucocerebrosidase inhibitor, were determined to be 87.5 uM and 117 uM, respectively. The use of two difference pro-fluorescent substrates in the screens helped to eliminate false positives. All compounds were screened in a titration series resulting in AC50s (e.g., IC50s or EC50s).
NCGC Assay Protocol Summary: Both enzyme and substrate were diluted in buffer composed of 50mM citric acid/KH2PO4, 10mM sodium taurocholate and 0.01% tween-20 at pH 5.9. The final concentration of the enzyme was 0.2 nM in both assays. The compound library was titrated in 7 to 15 concentrations for the primary screens with a final concentration ranging from 0.6 nM to 50 uM. This particular assay protocol is for the "red" substrate, and it was performed in 1536-well plate format as follows: Red fluorescence substrate assay: 2 uL enzyme 23 nL compound 1 uL substrate (final concentration of 30 uM) Incubate at room temperature (RT) for 20 minutes Read the plate in Viewlux plate reader (Ex=548(7) and Em=600(10)).
With `c1ccc2c(c1)Cn1nc(Cc3nc4c(s3)CCCC4)nc1-2`, the Potency was inactive: > 76.9 µM.

Turning to `CCn1cc(C(=O)OC(C)C(=O)Nc2c(C)n(C)n(-c3ccccc3)c2=O)c(=O)c2ccc(C)nc21` (stereo not given), the Potency is inactive: > 76.9 µM.

Consider `COc1ccc(-n2c(SCC(=O)NCc3cccs3)nnc2-c2ccoc2C)cc1`, for which the Potency was inactive: > 76.9 µM.

For the compound `O=C(NCc1nnc(SCC(=O)N2CCCC2)o1)c1ccccc1F`, the Potency is inactive: > 76.9 µM.

`COc1ccc(NC2=Nc3ccccc3CC2)cc1`: the Potency was inactive: > 76.9 µM.

As to `COCCCNC(=O)C1CCC(=O)N1Cc1ccccc1Cl` (stereo not given), the Potency is inactive: > 76.9 µM.

In the case of `COc1ccc(F)cc1S(=O)(=O)Nc1ccc(C)cc1`, the Potency is inactive: > 76.9 µM.

For the compound `COc1ccc(C2CC(c3ccc(Br)cc3)Nc3nc(N)nn32)cc1` (stereo not given), the Potency is inactive: > 76.9 µM.

In the case of `CC(=O)Nc1nc(-c2ccc(Br)s2)cs1`, the Potency was inactive: > 76.9 µM.

For `c1ccc(CNc2ncnc3ccccc23)cc1`, the Potency was inactive: > 76.9 µM.

Consider `N=c1n(Cc2ccccc2)c2ccccc2n1CC(O)COc1ccccc1` (stereo not given), for which the Potency was inactive: > 76.9 µM.

Turning to `CC(C)OCCCN1CN(S(=O)(=O)c2ccccc2)c2nc3ccccc3nc21`, the Potency is inactive: > 76.9 µM.

On to `Cc1nn2c(N)csc2nc1=O`, for which the Potency is inactive: > 76.9 µM.

Take `Cc1ccc2cc3cc(C(=O)NCCC(C)C)oc3nc2c1`: the Potency is inactive: > 76.9 µM.

Regarding `CCn1c(SCC(=O)Nc2nc(C)cs2)nnc1-c1cccnc1`, the Potency is inactive: > 76.9 µM.

Turning to `Cc1[nH]c(=O)[nH]c(=O)c1CSc1nnc(CCCCCNC(=O)OC(C)(C)C)o1`, the Potency was inactive: > 76.9 µM.

For `C=CCOC(=O)Nc1c(C(=O)OC)[nH]c2ccc(Cl)cc12`, the Potency was inactive: > 76.9 µM.

Regarding `COc1ccc(-c2nnn(CC(=O)NC3CCCc4ccccc43)n2)cc1OC` (stereo not given), the Potency is inactive: > 76.9 µM.

On to `CCC(=O)Nc1c2c(nn1-c1ccc(C)cc1C)CSC2`, for which the Potency is inactive: > 76.9 µM.

For the compound `O=C(CC1OC(=O)c2ccccc21)NC1CCCCC1` (stereo not given), the Potency was inactive: > 76.9 µM.

`CCOC(=O)c1[nH]c(C)c(C(=O)N2CCN(c3ccccc3)CC2)c1C`: the Potency was inactive: > 76.9 µM.

As to `COc1cc(NC(=O)c2ccco2)c(OC)cc1NC(=O)Nc1cccc(Cl)c1`, the Potency was inactive: > 76.9 µM.

As to `O=C(Nc1cccc(C(F)(F)F)c1)c1cc(S(=O)(=O)N2CCCCC2)ccc1N1CCOCC1`, the Potency is inactive: > 76.9 µM.

In the case of `C/C(Cl)=C\CSc1nnc2n(N)c(=O)c3ccccc3n12`, the Potency is inactive: > 76.9 µM.

On to `CCOC(=O)CCc1c(C)c2ccc(OCC(=O)N(CC)CC)c(C)c2oc1=O`, for which the Potency is inactive: > 76.9 µM.

`Cc1ccc(S(=O)(=O)N(CCO)Cc2cc3ccc(C)c(C)c3[nH]c2=O)cc1`: the Potency is inactive: > 76.9 µM.

`CC(Oc1ccc(NC(=O)c2ccco2)cc1)C(=O)N1c2ccccc2CC1C` (stereo not given): the Potency is inactive: > 76.9 µM.

With `Cc1cc(NC(=O)Cn2nc3c(cc2=O)CCCC3)ccc1Br`, the Potency is inactive: > 76.9 µM.

Regarding `Cc1ccc(NC(=O)CN2C(=O)C(C)Oc3ccccc32)nc1` (stereo not given), the Potency is inactive: > 76.9 µM.

`COc1ccc(CN(CC(=O)NCC2CCCO2)C(=O)CCC(=O)Nc2cc(C)ccn2)cc1` (stereo not given): the Potency is inactive: > 76.9 µM.

Consider `NC(=O)Nn1c(CCC(=O)O)ccc1-c1ccc(Br)cc1`, for which the Potency is inactive: > 76.9 µM.

`COc1cc(OC)cc(OCC(O)Cn2ccnc2)c1` (stereo not given): the Potency was inactive: > 76.9 µM.

Consider `CC(=O)Nc1nonc1NC(=O)CSc1ccccn1`, for which the Potency is inactive: > 76.9 µM.

Consider `Cc1ccc(OCc2nnc(SCC(=O)Nc3cc(C)on3)n2C)cc1`, for which the Potency is inactive: > 76.9 µM.

Take `Cc1noc(C)c1CN1C(=O)NC(Cc2ccccc2)(Cc2ccccc2)C1=O`: the Potency is inactive: > 76.9 µM.

In the case of `COc1ccc(OC)c(S(=O)(=O)N2CCC(C(=O)Nc3ccc(C)c(C)c3)CC2)c1`, the Potency was inactive: > 76.9 µM.

On to `CCC(=O)N1CCCc2cc(S(=O)(=O)N3CCCc4ccccc43)ccc21`, for which the Potency was inactive: > 76.9 µM.

As for `Cn1c(Cc2ccccc2)nnc1SCC(=O)Nc1ccccc1N1CCOCC1`, the Potency was inactive: > 76.9 µM.

Regarding `COc1cccc(NC(=O)CCS(=O)(=O)c2cccs2)c1`, the Potency is inactive: > 76.9 µM.

Consider `Cc1cccc(C)c1NC(=O)CCCSc1nnc(-c2ccco2)n1-c1ccccc1`, for which the Potency was inactive: > 76.9 µM.

On to `Cc1cc(C)n(-c2nc(NCc3cccnc3)c3c4c(sc3n2)COC(C)(C)C4)n1`, for which the Potency was inactive: > 76.9 µM.

As for `CCOc1ccccc1C(=O)Nc1nccs1`, the Potency is inactive: > 76.9 µM.

`COCCn1c(=O)[nH]c2cc(C(=O)N3CCN(Cc4ccc5c(c4)OCO5)CC3)ccc2c1=O`: the Potency was inactive: > 76.9 µM.

For `CCOC(=O)c1c(C)c(C(=O)NCCCN2CCCC2=O)c(C)n1CC`, the Potency is inactive: > 76.9 µM.

For `CCN(CC)C(=O)c1cn(C)c2ccc(S(=O)(=O)N(CC)CC)cc2c1=O`, the Potency is inactive: > 76.9 µM.

Turning to `Cn1c(Cc2ccccc2)nnc1SCC(=O)N1CCOCC1`, the Potency is inactive: > 76.9 µM.

Consider `O=S(=O)(c1ccc(Br)s1)n1cccn1`, for which the Potency was inactive: > 76.9 µM.

Regarding `O=c1c2ccccc2nc(SCc2ccccc2)n1Cc1ccco1`, the Potency is inactive: > 76.9 µM.

For the compound `CC(C(=O)NCC1(c2ccccc2)CCCC1)N1CCOCC1` (stereo not given), the Potency is inactive: > 76.9 µM.

As for `OC(COc1ccccc1)CSc1ncn[nH]1` (stereo not given), the Potency was inactive: > 76.9 µM.

Take `Cc1cc(C)c(S(=O)(=O)N(CC(=O)N2CCOCC2)C2CCCCC2)c(C)c1`: the Potency is inactive: > 76.9 µM.

Regarding `Cc1nc(NC2=NCN(Cc3ccccc3)CN2)nc2ccccc12`, the Potency was inactive: > 76.9 µM.

As to `Cc1c(C(=O)NCc2ccc3c(c2)OCO3)oc2ccc(S(=O)(=O)N3CCCCCC3)cc12`, the Potency is inactive: > 76.9 µM.

Turning to `COc1ccc(CCN(CC(=O)NC2CCCC2)C(=O)CCC(=O)Nc2cc(C)on2)cc1OC`, the Potency is inactive: > 76.9 µM.

Take `COc1ccc(F)cc1S(=O)(=O)NC(Cc1ccccc1)C(N)=O` (stereo not given): the Potency is inactive: > 76.9 µM.

For `CCOc1cc(N2CCOCC2)c(OCC)cc1NC(=O)Cc1cn2ccsc2n1`, the Potency is inactive: > 76.9 µM.

As to `CC(C)(C)NC(=O)C(c1cccs1)N(CC1CCCO1)C(=O)Cn1nnc(-c2cccs2)n1` (stereo not given), the Potency is inactive: > 76.9 µM.

In the case of `CCOC(=O)c1sc(NC(=O)CSc2nnc(-c3ccco3)n2CC)c(C(=O)OCC)c1C`, the Potency was inactive: > 76.9 µM.

On to `Cc1nc(COC(=O)c2ccc(S(=O)(=O)N3CCCC3)cc2)cs1`, for which the Potency was inactive: > 76.9 µM.

As for `O=S(=O)(NCC1CC1)c1cccc(S(=O)(=O)N2CCCC2)c1`, the Potency was inactive: > 76.9 µM.

Take `CC(C)OC(=O)CSc1nnc(-c2cccnc2)n1N`: the Potency is inactive: > 76.9 µM.

Take `COc1ccc(N2CCN(C3CC(=O)N(c4ccc5c(c4)OCCO5)C3=O)CC2)cc1` (stereo not given): the Potency was inactive: > 76.9 µM.

Take `Cc1nn(-c2ccccc2)c2c1P(=O)(O)/C(=C1\N(C)c3ccccc3C1(C)C)C=N2`: the Potency was inactive: > 76.9 µM.

In the case of `Cc1nc2ccccc2c(=O)n1NS(C)(=O)=O`, the Potency was inactive: > 76.9 µM.

As for `CC(=O)Nc1ccc(NC(=O)c2ccccc2N(C)S(C)(=O)=O)cc1`, the Potency is inactive: > 76.9 µM.

Turning to `c1csc(CNc2ncnc3sccc23)c1`, the Potency was inactive: > 76.9 µM.

Take `c1ccc(Nc2nc3ccccc3[nH]2)nc1`: the Potency was inactive: > 76.9 µM.

As to `CCOC(=O)C1=C(CNCc2ccccc2Cl)NC(=O)NC1c1ccc2c(c1)OCO2` (stereo not given), the Potency entry was “inactive”.

Consider `N#Cc1c(-c2ccccc2)nc(N2CCOCC2)[nH]c1=O`, for which the Potency is inactive: > 76.9 µM.

For `Cn1c(=O)[nH]c(=O)c2c1nc(Br)n2CCCSc1nc2ccccc2o1`, the Potency is inactive: > 76.9 µM.

Consider `CCNc1nc(OC)nc(SCC(N)=O)n1`, for which the Potency was inactive: > 76.9 µM.

On to `O=C(CC1CC2CCC1C2)NCc1cccs1` (stereo not given), for which the Potency is inactive: > 76.9 µM.

For `Cc1ccc(C(=O)NC2CCS(=O)(=O)C2)cc1S(=O)(=O)N1CCCCC1` (stereo not given), the Potency is inactive: > 76.9 µM.

On to `c1ccc(OCCCn2nnc(-c3ccncc3)n2)cc1`, for which the Potency was inactive: > 76.9 µM.

`CCc1ccccc1NC(=O)CSc1nnc([C@@H](NC(=O)OC(C)(C)C)C(C)C)o1`: the Potency is inactive: > 76.9 µM.

As to `COC(=O)c1ccsc1NC(=O)CSc1nnnn1Cc1ccccc1`, the Potency was inactive: > 76.9 µM.

In the case of `CCOc1cc2c3c(c1)C1(OCCO1)C(=O)N3C(C)(C)CC2C` (stereo not given), the Potency was inactive: > 76.9 µM.

`CC(C)n1c(SCC(=O)N2CCCc3ccccc32)nc2c1c(=O)n(C)c(=O)n2C`: the Potency is inactive: > 76.9 µM.

Take `CN(C(=O)c1ccccn1)c1nnc(-c2cnccn2)s1`: the Potency is inactive: > 76.9 µM.

`O=C(CCNS(=O)(=O)c1ccc2c(c1)CCC(=O)N2)Nc1ccc2c(c1)OCCO2`: the Potency is inactive: > 76.9 µM.

Regarding `COc1ccc(CN(C(=O)CSc2nnc(-c3ccc(F)cc3)o2)c2ccc(F)cc2)cc1`, the Potency is inactive: > 76.9 µM.

`CCC(C)NC(=O)C1c2ccccc2C(=O)N1Cc1ccccc1OC` (stereo not given): the Potency was inactive: > 76.9 µM.

Regarding `CCn1c(SCc2cccc(C(=O)O)c2)nnc1-c1ccccc1`, the Potency is inactive: > 76.9 µM.

Consider `CCOc1nc(OCC)nc(-n2cc(-c3ccccc3)nn2)n1`, for which the Potency is inactive: > 76.9 µM.

As for `Cc1nn2c(-n3ccnc3)c3c(nc2c1-c1ccccc1)CCC3`, the Potency was inactive: > 76.9 µM.

For `CCOC(=O)Cc1csc(NC(=O)c2ccco2)n1`, the Potency is inactive: > 76.9 µM.

For `CCCC(C)C1C(C#N)=C(N)Oc2cc(C)oc(=O)c21` (stereo not given), the Potency is inactive: > 76.9 µM.

As to `CCOC(=O)N1CCN(C(=O)CSCC(=O)Nc2nc(-c3ccc(OC)cc3)cs2)CC1`, the Potency was inactive: > 76.9 µM.

Consider `COc1ccccc1N(CC(=O)Nc1ccc2c(c1)OCCO2)S(C)(=O)=O`, for which the Potency is inactive: > 76.9 µM.

On to `O=c1cc(N2CCN(c3ccccc3)CC2)[nH]c(=O)n1-c1ccccc1Cl`, for which the Potency is inactive: > 76.9 µM.
